# From the supplement of paper PMC8728848
# Some of the results follow.
# B1: Mg1lysM (Mycosphaerella graminicola) (protein)
# chain: QRNPITITPQFDCGATNSQQYVARSGDTLTKIAQEIYHDVVGVCDIARANNLADPNRIDAGTPYTIPINCQTYDRNSCL
# Tests used:
# Assay in all cases: glycan array binding signal (z-score within array); higher = stronger binding
# Conditions in all cases: glycan notation: IUPAC condensed, linker removed
# Fuc(a1-2)Gal = molecular target: Fuc(a1-2)Gal
# Procedure, shortened: (§1)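 Glycan array data were curated from 3228 arrays in the Consortium for Functional Glycomics database and kept only where the protein sequence was available. Glycan names were converted to IUPAC-condensed notation, and columns mapping to the same glycan were averaged. The binding signal is a within-array Z-score, averaged across arrays of the same protein sequence at different concentrations or buffers and across linkers. Negative Z-scores can be read as non-binding.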
# Fuc(a1-2)Gal(b1-3)GalNAc = molecular target: Fuc(a1-2)Gal(b1-3)GalNAc
# Procedure, shortened: as §1
# [1] = molecular target: Fuc(a1-2)Gal(b1-3)GalNAc(a1-3)[Fuc(a1-2)]Gal(b1-4)Glc
# Procedure, shortened: as §1
# [2] = molecular target: Fuc(a1-2)Gal(b1-3)GalNAc(a1-3)[Fuc(a1-2)]Gal(b1-4)GlcNAc
# Procedure, shortened: as §1
# [3] = molecular target: Fuc(a1-2)Gal(b1-3)GalNAc(b1-3)Gal
# Procedure, shortened: as §1
# [4] = molecular target: Fuc(a1-2)Gal(b1-3)GalNAc(b1-3)Gal(a1-4)Gal(b1-4)Glc
# Procedure, shortened: as §1
# [5] = molecular target: Fuc(a1-2)Gal(b1-3)GalNAc(b1-4)[Neu5Ac(a2-3)]Gal(b1-4)Glc
# Procedure, shortened: as §1
# Fuc(a1-2)Gal(b1-3)GlcNAc = molecular target: Fuc(a1-2)Gal(b1-3)GlcNAc
# Procedure, shortened: as §1
# [6] = molecular target: Fuc(a1-2)Gal(b1-3)GlcNAc(b1-2)Man(a1-3)[Fuc(a1-2)Gal(b1-3)GlcNAc(b1-2)Man(a1-6)]Man(b1-4)GlcNAc(b1-4)GlcNAc
# Procedure, shortened: as §1
# [7] = molecular target: Fuc(a1-2)Gal(b1-3)GlcNAc(b1-2)Man(a1-3)[Fuc(a1-2)Gal(b1-3)GlcNAc(b1-2)Man(a1-6)]Man(b1-4)GlcNAc(b1-4)[Fuc(a1-6)]GlcNAc
# Procedure, shortened: as §1
# [8] = molecular target: Fuc(a1-2)Gal(b1-3)GlcNAc(b1-3)Gal(b1-4)Glc
# Procedure, shortened: as §1
# [9] = molecular target: Fuc(a1-2)Gal(b1-3)GlcNAc(b1-3)GalNAc
# Procedure, shortened: as §1
# [10] = molecular target: Fuc(a1-2)Gal(b1-3)GlcNAc(b1-3)[Fuc(a1-2)Gal(b1-3)GlcNAc(b1-6)]GalNAc
# Procedure, shortened: as §1
# [11] = molecular target: Fuc(a1-2)Gal(b1-3)GlcNAc(b1-3)[Gal(b1-4)GlcNAc(b1-6)]Gal(b1-4)Glc
# Procedure, shortened: as §1
# [12] = molecular target: Fuc(a1-2)Gal(b1-3)GlcNAc(b1-3)[Neu5Ac(a2-6)Gal(b1-4)GlcNAc(b1-6)]Gal(b1-4)Glc
# Procedure, shortened: as §1
# [13] = molecular target: Fuc(a1-2)Gal(b1-3)GlcNAc6S
# Procedure, shortened: as §1
# [14] = molecular target: Fuc(a1-2)Gal(b1-3)[Fuc(a1-4)]GlcNAc
# Procedure, shortened: as §1
# [15] = molecular target: Fuc(a1-2)Gal(b1-3)[Fuc(a1-4)]GlcNAc(b1-2)Man(a1-3)[Fuc(a1-2)Gal(b1-3)[Fuc(a1-4)]GlcNAc(b1-2)Man(a1-3)]Man(b1-4)GlcNAc(b1-4)GlcNAc
# Procedure, shortened: as §1
# [16] = molecular target: Fuc(a1-2)Gal(b1-3)[Fuc(a1-4)]GlcNAc(b1-2)Man(a1-3)[Fuc(a1-2)Gal(b1-3)[Fuc(a1-4)]GlcNAc(b1-2)Man(a1-6)]Man(b1-4)GlcNAc(b1-4)[Fuc(a1-6)]GlcNAc(b1-4)[Fuc(a1-6)]GlcNAc
# Procedure, shortened: as §1
# [17] = molecular target: Fuc(a1-2)Gal(b1-3)[Fuc(a1-4)]GlcNAc(b1-3)[Fuc(a1-3)[Gal(b1-4)]GlcNAc(b1-6)]Gal(b1-4)Glc
# Procedure, shortened: as §1
# [18] = molecular target: Fuc(a1-2)Gal(b1-3)[Fuc(a1-4)]GlcNAc(b1-3)[Gal(b1-4)GlcNAc(b1-6)]Gal(b1-4)Glc
# Procedure, shortened: as §1
# [19] = molecular target: Fuc(a1-2)Gal(b1-4)Fuc(a1-3)]GlcNAc(b1-2)Man(a1-3)[Fuc(a1-2)Gal(b1-4)[Fuc(a1-3)]GlcNAc(b1-2)Man(a1-6)]Man(b1-4)GlcNAc(b1-4)GlcNAc
# Procedure, shortened: as §1
# Fuc(a1-2)Gal(b1-4)Glc = molecular target: Fuc(a1-2)Gal(b1-4)Glc
# Procedure, shortened: as §1
# Fuc(a1-2)Gal(b1-4)Glc6S = molecular target: Fuc(a1-2)Gal(b1-4)Glc6S
# Procedure, shortened: as §1
# Fuc(a1-2)Gal(b1-4)GlcNAc = molecular target: Fuc(a1-2)Gal(b1-4)GlcNAc
# Procedure, shortened: as §1
# [20] = molecular target: Fuc(a1-2)Gal(b1-4)GlcNAc(b1-2)Man
# Procedure, shortened: as §1
# [21] = molecular target: Fuc(a1-2)Gal(b1-4)GlcNAc(b1-2)Man(a1-3)[Fuc(a1-2)Gal(b1-4)GlcNAc(b1-2)Man(a1-6)]Man(b1-4)GlcNAc(b1-4)GlcNAc
# Procedure, shortened: as §1
# [22] = molecular target: Fuc(a1-2)Gal(b1-4)GlcNAc(b1-2)Man(a1-3)[Fuc(a1-2)Gal(b1-4)GlcNAc(b1-2)Man(a1-6)]Man(b1-4)GlcNAc(b1-4)[Fuc(a1-6)]GlcNAc
# Procedure, shortened: as §1
# [23] = molecular target: Fuc(a1-2)Gal(b1-4)GlcNAc(b1-2)[Fuc(a1-2)Gal(b1-4)GlcNAc(b1-4)]Man(a1-3)[Fuc(a1-2)Gal(b1-4)GlcNAc(b1-2)Man(a1-6)]Man(b1-4)GlcNAc(b1-4)GlcNAc
# Procedure, shortened: as §1
# [24] = molecular target: Fuc(a1-2)Gal(b1-4)GlcNAc(b1-3)Gal(b1-4)GlcNAc
# Procedure, shortened: as §1
# [25] = molecular target: Fuc(a1-2)Gal(b1-4)GlcNAc(b1-3)Gal(b1-4)GlcNAc(b1-2)Man(a1-3)[Fuc(a1-2)Gal(b1-4)GlcNAc(b1-3)Gal(b1-4)GlcNAc(b1-2)Man(a1-6)]Man(b1-4)GlcNAc(b1-4)GlcNAc
# Procedure, shortened: as §1
# [26] = molecular target: Fuc(a1-2)Gal(b1-4)GlcNAc(b1-3)Gal(b1-4)GlcNAc(b1-3)Gal(b1-4)GlcNAc
# Procedure, shortened: as §1
# [27] = molecular target: Fuc(a1-2)Gal(b1-4)GlcNAc(b1-3)GalNAc
# Procedure, shortened: as §1
# [28] = molecular target: Fuc(a1-2)Gal(b1-4)GlcNAc(b1-3)[Fuc(a1-2)Gal(b1-4)GlcNAc(b1-6)]GalNAc
# Procedure, shortened: as §1
# [29] = molecular target: Fuc(a1-2)Gal(b1-4)GlcNAc(b1-3)[Fuc(a1-3)[Gal(b1-4)]GlcNAc(b1-6)]Gal(b1-4)Glc
# Procedure, shortened: as §1
# [30] = molecular target: Fuc(a1-2)Gal(b1-4)GlcNAc(b1-6)GalNAc
# Procedure, shortened: as §1
# [31] = molecular target: Fuc(a1-2)Gal(b1-4)GlcNAc6S
# Procedure, shortened: as §1
# [32] = molecular target: Fuc(a1-2)Gal(b1-4)[Fuc(a1-3)]GlcNAc
# Procedure, shortened: as §1
# [33] = molecular target: Fuc(a1-2)Gal(b1-4)[Fuc(a1-3)]GlcNAc(b1-2)Man(a1-3)[Fuc(a1-2)Gal(b1-4)[Fuc(a1-3)]GlcNAc(b1-2)Man(a1-6)]Man(b1-4)GlcNAc(b1-4)[Fuc(a1-6)]GlcNAc
# Procedure, shortened: as §1
# [34] = molecular target: Fuc(a1-2)Gal(b1-4)[Fuc(a1-3)]GlcNAc(b1-2)[Fuc(a1-2)Gal(b1-4)[Fuc(a1-3)]GlcNAc(b1-4)]Man(a1-3)[Fuc(a1-2)Gal(b1-4)[Fuc(a1-3)]GlcNAc(b1-2)Man(a1-6)]Man(b1-4)GlcNAc(b1-4)GlcNAc
# Procedure, shortened: as §1
# [35] = molecular target: Fuc(a1-2)Gal(b1-4)[Fuc(a1-3)]GlcNAc(b1-3)Gal(b1-4)[Fuc(a1-3)]GlcNAc
# Procedure, shortened: as §1
# [36] = molecular target: Fuc(a1-2)Gal(b1-4)[Fuc(a1-3)]GlcNAc(b1-3)Gal(b1-4)[Fuc(a1-3)]GlcNAc(b1-3)Gal(b1-4)[Fuc(a1-3)]GlcNAc
# Procedure, shortened: as §1
# [37] = molecular target: Fuc(a1-2)Gal(b1-4)[Fuc(a1-3)]GlcNAc(b1-3)GalNAc
# Procedure, shortened: as §1
# [38] = molecular target: Fuc(a1-2)Gal(b1-4)[Fuc(a1-3)]GlcNAc(b1-3)[Neu5Ac(a2-6)Gal(b1-4)GlcNAc(b1-6)]Gal(b1-4)Glc
# Procedure, shortened: as §1
# [39] = molecular target: Fuc(a1-2)Gal3S(b1-4)GlcNAc
# Procedure, shortened: as §1
binder,measurement,setting,value
B1,glycan array binding signal (z-score),Fuc(a1-2)Gal,-0.028
same,glycan array binding signal (z-score),Fuc(a1-2)Gal(b1-3)GalNAc,-0.076
same,glycan array binding signal (z-score),[1],-0.09
same,glycan array binding signal (z-score),[2],-0.086
same,glycan array binding signal (z-score),[3],-0.086
same,glycan array binding signal (z-score),[4],-0.052
same,glycan array binding signal (z-score),[5],-0.068
same,glycan array binding signal (z-score),Fuc(a1-2)Gal(b1-3)GlcNAc,-0.056
same,glycan array binding signal (z-score),[6],-0.035
same,glycan array binding signal (z-score),[7],-0.07
same,glycan array binding signal (z-score),[8],-0.073
same,glycan array binding signal (z-score),[9],-0.088
same,glycan array binding signal (z-score),[10],-0.074
same,glycan array binding signal (z-score),[11],-0.097
same,glycan array binding signal (z-score),[12],-0.088
same,glycan array binding signal (z-score),[13],-0.037
same,glycan array binding signal (z-score),[14],-0.053
same,glycan array binding signal (z-score),[15],-0.071
same,glycan array binding signal (z-score),[16],-0.005
same,glycan array binding signal (z-score),[17],-0.076
same,glycan array binding signal (z-score),[18],-0.074
same,glycan array binding signal (z-score),[19],-0.028
same,glycan array binding signal (z-score),Fuc(a1-2)Gal(b1-4)Glc,-0.06
same,glycan array binding signal (z-score),Fuc(a1-2)Gal(b1-4)Glc6S,-0.091
same,glycan array binding signal (z-score),Fuc(a1-2)Gal(b1-4)GlcNAc,-0.058
same,glycan array binding signal (z-score),[20],-0.079
same,glycan array binding signal (z-score),[21],-0.053
same,glycan array binding signal (z-score),[22],-0.075
same,glycan array binding signal (z-score),[23],-0.073
same,glycan array binding signal (z-score),[24],-0.072
same,glycan array binding signal (z-score),[25],-0.081
same,glycan array binding signal (z-score),[26],-0.049
same,glycan array binding signal (z-score),[27],-0.07
same,glycan array binding signal (z-score),[28],-0.094
same,glycan array binding signal (z-score),[29],-0.066
same,glycan array binding signal (z-score),[30],-0.039
same,glycan array binding signal (z-score),[31],-0.058
same,glycan array binding signal (z-score),[32],-0.053
same,glycan array binding signal (z-score),[33],0.076
same,glycan array binding signal (z-score),[34],-0.065
same,glycan array binding signal (z-score),[35],-0.061
same,glycan array binding signal (z-score),[36],-0.063
same,glycan array binding signal (z-score),[37],-0.083
same,glycan array binding signal (z-score),[38],-0.065
same,glycan array binding signal (z-score),[39],-0.038
